# From the supplement of paper PMC8728848
# Some of the results follow.
# B1: DEC205 (Homo sapiens), O60449 (protein)
# chain: MRTGWATPRRPAGLLMLLFWFFDLAEPSGRAANDPFTIVHGNTGKCIKPVYGWIVADDCDETEDKLWKWVSQHRLFHLHSQKCLGLDITKSVNELRMFSCDSSAMLWWKCEHHSLYGAARYRLALKDGHGTAISNASDVWKKGGSEESLCDQPYHEIYTRDGNSYGRPCEFPFLIDGTWHHDCILDEDHSGPWCATTLNYEYDRKWGICLKPENGCEDNWEKNEQFGSCYQFNTQTALSWKEAYVSCQNQGADLLSINSAAELTYLKEKEGIAKIFWIGLNQLYSARGWEWSDHKPLNFLNWDPDRPSAPTIGGSSCARMDAESGLWQSFSCEAQLPYVCRKPLNNTVELTDVWTYSDTRCDAGWLPNNGFCYLLVNESNSWDKAHAKCKAFSSDLISIHSLADVEVVVTKLHNEDIKEEVWIGLKNINIPTLFQWSDGTEVTLTYWDENEPNVPYNKTPNCVSYLGELGQWKVQSCEEKLKYVCKRKGEKLNDASSDKMCPPDEGWKRHGETCYKIYEDEVPFGTNCNLTITSRFEQEYLNDLMKKYDKSLRKYFWTGLRDVDSCGEYNWATVGGRRRAVTFSNWNFLEPASPGGCVAMSTGKSVGKWEVKDCRSFKALSICKKMSGPLGPEEASPKPDDPCPEGWQSFPASLSCYKVFHAERIVRKRNWEEAERFCQALGAHLSSFSHVDEIKEFLHFLTDQFSGQHWLWIGLNKRSPDLQGSWQWSDRTPVSTIIMPNEFQQDYDIRDCAAVKVFHRPWRRGWHFYDDREFIYLRPFACDTKLEWVCQIPKGRTPKTPDWYNPDRAGIHGPPLIIEGSEYWFVADLHLNYEEAVLYCASNHSFLATITSFVGLKAIKNKIANISGDGQKWWIRISEWPIDDHFTYSRYPWHRFPVTFGEECLYMSAKTWLIDLGKPTDCSTKLPFICEKYNVSSLEKYSPDSAAKVQCSEQWIPFQNKCFLKIKPVSLTFSQASDTCHSYGGTLPSVLSQIEQDFITSLLPDMEATLWIGLRWTAYEKINKWTDNRELTYSNFHPLLVSGRLRIPENFFEEESRYHCALILNLQKSPFTGTWNFTSCSERHFVSLCQKYSEVKSRQTLQNASETVKYLNNLYKIIPKTLTWHSAKRECLKSNMQLVSITDPYQQAFLSVQALLHNSSLWIGLFSQDDELNFGWSDGKRLHFSRWAETNGQLEDCVVLDTDGFWKTVDCNDNQPGAICYYSGNETEKEVKPVDSVKCPSPVLNTPWIPFQNCCYNFIITKNRHMATTQDEVHTKCQKLNPKSHILSIRDEKENNFVLEQLLYFNYMASWVMLGITYRNNSLMWFDKTPLSYTHWRAGRPTIKNEKFLAGLSTDGFWDIQTFKVIEEAVYFHQHSILACKIEMVDYKEEHNTTLPQFMPYEDGIYSVIQKKVTWYEALNMCSQSGGHLASVHNQNGQLFLEDIVKRDGFPLWVGLSSHDGSESSFEWSDGSTFDYIPWKGQTSPGNCVLLDPKGTWKHEKCNSVKDGAICYKPTKSKKLSRLTYSSRCPAAKENGSRWIQYKGHCYKSDQALHSFSEAKKLCSKHDHSATIVSIKDEDENKFVSRLMRENNNITMRVWLGLSQHSVDQSWSWLDGSEVTFVKWENKSKSGVGRCSMLIASNETWKKVECEHGFGRVVCKVPLGPDYTAIAIIVATLSILVLMGGLIWFLFQRHRLHLAGFSSVRYAQGVNEDEIMLPSFHD
# How the values were obtained:
# Assay in all cases: glycan array binding signal (z-score within array); higher = stronger binding
# Conditions in all cases: glycan notation: IUPAC condensed, linker removed
# [1] = target: GlcNAc(a1-3)Gal(b1-4)GlcNAc
# Summary of the method: (§1)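 Glycan array binding is given as a within-array Z-score, which can be read as non-binding when negative. The arrays, 3228 of them, came from the Consortium for Functional Glycomics database and were retained only where the protein sequence was available. Z-scores were averaged across arrays of the same protein sequence at different concentrations or buffers and across linkers.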
# [2] = target: GlcNAc(a1-6)Gal(b1-4)GlcNAc
# Summary of the method: as §1
# [3] = target: GlcNAc(b1-2)Gal(b1-3)GalNAc
# Summary of the method: as §1
# [4] = target: GlcNAc(b1-2)Man(a1-3)[GlcNAc(b1-2)Man(a1-6)]Man(b1-4)GlcNAc(b1-4)GlcNAc
# Summary of the method: as §1
# GlcNAc(b1-3)Gal = target: GlcNAc(b1-3)Gal
# Summary of the method: as §1
# [5] = target: GlcNAc(b1-3)Gal(b1-3)GalNAc
# Summary of the method: as §1
# GlcNAc(b1-3)Gal(b1-4)Glc = target: GlcNAc(b1-3)Gal(b1-4)Glc
# Summary of the method: as §1
# [6] = target: GlcNAc(b1-3)Gal(b1-4)GlcNAc
# Summary of the method: as §1
# [7] = target: GlcNAc(b1-3)Gal(b1-4)GlcNAc(b1-3)Gal(b1-4)GlcNAc
# Summary of the method: as §1
# GlcNAc(b1-3)GalNAc = target: GlcNAc(b1-3)GalNAc
# Summary of the method: as §1
# [8] = target: GlcNAc(b1-3)[GlcNAc(b1-6)]Gal(b1-4)GlcNAc
# Summary of the method: as §1
# [9] = target: GlcNAc(b1-3)[GlcNAc(b1-6)]GalNAc
# Summary of the method: as §1
# [10] = target: GlcNAc(b1-3)[GlcNAc(b1-6)]GlcNAc(b1-4)GlcNAc
# Summary of the method: as §1
# [11] = target: GlcNAc(b1-4)Gal(b1-4)GlcNAc
# Summary of the method: as §1
# [12] = target: GlcNAc(b1-4)GlcNAc(b1-4)GlcNAc
# Summary of the method: as §1
# [13] = target: GlcNAc(b1-4)GlcNAc(b1-4)GlcNAc(b1-4)GlcNAc(b1-4)GlcNAc
# Summary of the method: as §1
# [14] = target: GlcNAc(b1-4)GlcNAc(b1-4)GlcNAc(b1-4)GlcNAc(b1-4)GlcNAc(b1-4)GlcNAc
# Summary of the method: as §1
# [15] = target: GlcNAc(b1-4)[GlcNAc(b1-6)]GalNAc
# Summary of the method: as §1
# [16] = target: GlcNAc(b1-6)Gal(b1-4)GlcNAc
# Summary of the method: as §1
# GlcNAc(b1-6)GalNAc = target: GlcNAc(b1-6)GalNAc
# Summary of the method: as §1
# Kdn(a2-3)Gal(b1-3)GlcNAc = target: Kdn(a2-3)Gal(b1-3)GlcNAc
# Summary of the method: as §1
# Kdn(a2-3)Gal(b1-4)GlcNAc = target: Kdn(a2-3)Gal(b1-4)GlcNAc
# Summary of the method: as §1
# [17] = target: Man(a1-2)Man(a1-2)Man(a1-3)Man
# Summary of the method: as §1
# [18] = target: Man(a1-2)Man(a1-2)Man(a1-6)[Man(a1-3)]Man
# Summary of the method: as §1
# Man(a1-2)Man(a1-3)Man = target: Man(a1-2)Man(a1-3)Man
# Summary of the method: as §1
# [19] = target: Man(a1-2)Man(a1-3)[Man(a1-2)Man(a1-6)]Man
# Summary of the method: as §1
# [20] = target: Man(a1-2)Man(a1-3)[Man(a1-2)Man(a1-6)]Man(a1-6)[Man(a1-2)Man(a1-2)Man(a1-3)]Man(b1-4)GlcNAc(b1-4)GlcNAc
# Summary of the method: as §1
# [21] = target: Man(a1-2)Man(a1-3)[Man(a1-6)]Man(a1-6)[Man(a1-2)Man(a1-3)]Man(b1-4)GlcNAc(b1-4)GlcNAc
# Summary of the method: as §1
# [22] = target: Man(a1-2)Man(a1-6)[Man(a1-3)]Man(a1-6)[Man(a1-2)Man(a1-2)Man(a1-3)]Man(b1-4)GlcNAc(b1-4)GlcNAc
# Summary of the method: as §1
# Man(a1-3)[Man(a1-6)]Man = target: Man(a1-3)[Man(a1-6)]Man
# Summary of the method: as §1
# [23] = target: Man(a1-3)[Man(a1-6)]Man(a1-6)[Man(a1-2)Man(a1-3)]Man(b1-4)GlcNAc(b1-4)GlcNAc
# Summary of the method: as §1
# [24] = target: Man(a1-3)[Man(a1-6)]Man(a1-6)[Man(a1-3)]Man(b1-4)GlcNAc(b1-4)GlcNAc
# Summary of the method: as §1
# [25] = target: Man(a1-3)[Man(a1-6)]Man(b1-4)GlcNAc(b1-4)GlcNAc
# Summary of the method: as §1
# Man(b1-4)GlcNAc = target: Man(b1-4)GlcNAc
# Summary of the method: as §1
# Neu5Ac(a2-3)Gal = target: Neu5Ac(a2-3)Gal
# Summary of the method: as §1
# [26] = target: Neu5Ac(a2-3)Gal(b1-3)GalNAc
# Summary of the method: as §1
# [27] = target: Neu5Ac(a2-3)Gal(b1-3)GalNAc(b1-3)Gal(a1-4)Gal(b1-4)Glc
# Summary of the method: as §1
# [28] = target: Neu5Ac(a2-3)Gal(b1-3)GalNAc(b1-3)Gal(b1-4)GlcNAc
# Summary of the method: as §1
# [29] = target: Neu5Ac(a2-3)Gal(b1-3)GalNAc(b1-4)[Neu5Ac(a2-3)]Gal(b1-4)Glc
# Summary of the method: as §1
# [30] = target: Neu5Ac(a2-3)Gal(b1-3)GalNAc6S
# Summary of the method: as §1
# [31] = target: Neu5Ac(a2-3)Gal(b1-3)GlcNAc
# Summary of the method: as §1
# [32] = target: Neu5Ac(a2-3)Gal(b1-3)GlcNAc6S
# Summary of the method: as §1
# [33] = target: Neu5Ac(a2-3)Gal(b1-3)[Fuc(a1-4)]GlcNAc
# Summary of the method: as §1
# [34] = target: Neu5Ac(a2-3)Gal(b1-3)[Fuc(a1-4)]GlcNAc(b1-3)Gal(b1-4)[Fuc(a1-3)]GlcNAc
# Summary of the method: as §1
# [35] = target: Neu5Ac(a2-3)Gal(b1-3)[Neu5Ac(a2-3)Gal(b1-4)]GlcNAc
# Summary of the method: as §1
binder,measurement,setting,value
B1,glycan array binding signal (z-score),[1],-0.174
same,glycan array binding signal (z-score),[2],-0.167
same,glycan array binding signal (z-score),[3],-0.398
same,glycan array binding signal (z-score),[4],-0.232
same,glycan array binding signal (z-score),GlcNAc(b1-3)Gal,-0.22
same,glycan array binding signal (z-score),[5],-0.229
same,glycan array binding signal (z-score),GlcNAc(b1-3)Gal(b1-4)Glc,-0.419
same,glycan array binding signal (z-score),[6],-0.276
same,glycan array binding signal (z-score),[7],0.039
same,glycan array binding signal (z-score),GlcNAc(b1-3)GalNAc,-0.307
same,glycan array binding signal (z-score),[8],-0.35
same,glycan array binding signal (z-score),[9],-0.145
same,glycan array binding signal (z-score),[10],-0.094
same,glycan array binding signal (z-score),[11],-0.173
same,glycan array binding signal (z-score),[12],3.79
same,glycan array binding signal (z-score),[13],-0.327
same,glycan array binding signal (z-score),[14],-0.135
same,glycan array binding signal (z-score),[15],-0.219
same,glycan array binding signal (z-score),[16],-0.071
same,glycan array binding signal (z-score),GlcNAc(b1-6)GalNAc,-0.308
same,glycan array binding signal (z-score),Kdn(a2-3)Gal(b1-3)GlcNAc,0.019
same,glycan array binding signal (z-score),Kdn(a2-3)Gal(b1-4)GlcNAc,1.75
same,glycan array binding signal (z-score),[17],-0.119
same,glycan array binding signal (z-score),[18],-0.311
same,glycan array binding signal (z-score),Man(a1-2)Man(a1-3)Man,-0.327
same,glycan array binding signal (z-score),[19],-0.072
same,glycan array binding signal (z-score),[20],0.357
same,glycan array binding signal (z-score),[21],-0.041
same,glycan array binding signal (z-score),[22],-0.18
same,glycan array binding signal (z-score),Man(a1-3)[Man(a1-6)]Man,-0.18
same,glycan array binding signal (z-score),[23],-0.327
same,glycan array binding signal (z-score),[24],-0.154
same,glycan array binding signal (z-score),[25],-0.47
same,glycan array binding signal (z-score),Man(b1-4)GlcNAc,-0.273
same,glycan array binding signal (z-score),Neu5Ac(a2-3)Gal,-0.168
same,glycan array binding signal (z-score),[26],-0.274
same,glycan array binding signal (z-score),[27],-0.177
same,glycan array binding signal (z-score),[28],0.121
same,glycan array binding signal (z-score),[29],-0.242
same,glycan array binding signal (z-score),[30],-0.225
same,glycan array binding signal (z-score),[31],-0.209
same,glycan array binding signal (z-score),[32],-0.051
same,glycan array binding signal (z-score),[33],-0.003
same,glycan array binding signal (z-score),[34],-0.019
same,glycan array binding signal (z-score),[35],-0.395
